# PubChem BioAssay AID540267 (National Center for Advancing Translational Sciences (NCATS), 2011)
# Screen size: about 340,000 compounds; about 530 (0.16%) were called active. The inconclusive results got no clear call from the source; some entries with a clear call stand among them for comparison. Cut-off read from the data, not from the text of the source: active = activity change below about -80%; inconclusive = between about -30% and that limit; inactive = weaker than that.
# Test: Small Molecules that selectively kill Giardia lamblia: qHTS;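 note: parasites exposed to compound for two days anaerobically before the ATP read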
# Details: Giardia lamblia trophozoite viability; at 7.66 µM; stronger effect = lower value
# Summary of the method: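 Luminescence from cellular ATP indicates surviving trophozoites (100 cells/well) following 48 hrs anaerobic compound treatment at 37 deg C; signal develops 15-30 min at room temperature.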
# % is set by controls: 0 for no effect and ±100 for the full control effect.
row,Structure (SMILES),activity change
1,O=C(Nc1cnc2sccn2c1=O)c1ccccc1Cl,inactive: -5.85%
2,CC(=O)Nc1ccc(-c2cc(C(=O)O)c3ccccc3n2)cc1,inconclusive: -37.2% [inhibitor]
3,COc1ccc(-c2nn(-c3ccccc3)cc2C(=O)N/N=C/c2ccc([N+](=O)[O-])o2)cc1,active: -86%
4,O=C(c1ccc2nc(Cc3ccccc3F)oc2c1)N1CCCC1,inactive: -0.0627%
5,Cc1noc(C)c1S(=O)(=O)N1CCCC(C(=O)Nc2ccc(Cl)cn2)C1 (stereo not drawn),inactive: -6.46%
6,O=C(Nc1ccccc1O)c1ccc([N+](=O)[O-])cc1,inconclusive: -50.2% [inhibitor]
7,NNc1ncnc2scc(-c3ccc(Cl)cc3)c12,inactive: -8.26%
8,CCOC(=O)c1sc(NC(=O)c2ccc(C)s2)cc1C,inconclusive: -34.7% [inhibitor]
9,Cn1c(=O)c(=O)n(C)c2cc([N+](=O)[O-])c(N3CCOCC3)cc21,inconclusive: -63.2% [inhibitor]
10,O=C1CCC[C@@H]2C[C@@]3(C[C@@H]4CCN1[C@H]24)Nc1cc([N+](=O)[O-])ccc1NC3=NC1CCCCC1,inconclusive: -35.5% [inhibitor]
11,O=C(Nc1ccc(-c2ccccc2)cc1)c1ccco1,inactive: -19.1%
12,CCn1c2c(c3cc(OCC(C)C)ccc31)CCCC2=O,inactive: 3.31%
13,CC(C)CCn1c(N2CCN(c3cccc(Cl)c3)CC2)nc2c1c(=O)[nH]c(=O)n2C,inactive: 5.39%
14,CCOc1ccc(Br)cc1S(=O)(=O)Nc1ccc(C(=O)Nc2ccccc2OC)cc1,inactive: 8.38%
15,COc1ccnc(Oc2ccccc2)c1-c1ncn[nH]1,inconclusive: -30.5% [inhibitor]
16,CCC(CC)c1nnc(NC(=O)c2c(C)nn(Cc3ccccc3Cl)c2C)s1,inactive: 6.72%
17,CC(=Nc1ccc(C)cc1)c1sc2ccccc2c1O,inconclusive: -37.1% [inhibitor]
18,Cc1ccc(NC(=O)COC(=O)Cc2cccs2)cc1S(=O)(=O)N1CCOCC1,inactive: 17%
19,Cc1cc(Cl)ccc1OCC(=O)NNC(=O)c1cccnc1,inconclusive: -32% [inhibitor]
20,CC(C)CN1CCC(=O)N(CCSc2ccc(Br)cc2)CC1,inconclusive: -32% [inhibitor]
21,O=C(c1ccc2c3n(nc2c1)-c1ccccc1CO3)N1CCCCC1,inconclusive: -47% [inhibitor]
22,COc1cc2c(cc1NC(=O)c1ccccc1F)CCCC2,inconclusive: -32.6% [inhibitor]
23,COc1ccc(-c2[nH]ncc2CNC(C)c2cn(C)nc2C)c(F)c1 (stereo not drawn),inconclusive: -36.7% [inhibitor]
